# Experimental data published in the supplement of paper PMC8728848.
# The list shows a part of the results.
# B1: Pp2-A2 (Arabidopsis thaliana), Q07098 (protein)
# chain: MPSNGDLDRQIEQLMECKPLSEADVRTLCDQARAILVEEYNVQPVKCPVTVCGDIHGQFYDLIELFRIGGNAPDTNYLFMGDYVDRGYYSVETVSLLVALKVRYRDRLTILRGNHESRQITQVYGFYDECLRKYGNANVWKYFTDLFDYLPLTALIESQVFCLHGGLSPSLDTLDNIRSLDRIQEVPHEGPMCDLLWSDPDDRCGWGISPRGAGYTFGQDIAAQFNHNNGLSLISRAHQLVMEGFNWCQDKNVVTVFSAPNYCYRCGNMAAILEIGENMEQNFLQFDPAPRQVEPDTTRKTPDYFL
# How the values were obtained:
# Assay in all cases: glycan array binding signal (z-score within array); higher = stronger binding
# Conditions in all cases: glycan notation: IUPAC condensed, linker removed
# [1] = biological target: Gal(b1-3)[Fuc(a1-4)]GlcNAc
# Summary of the method: (§1)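 The binding signal is a Z-score computed within each array. Data were drawn from 3228 arrays in the Consortium for Functional Glycomics database, restricted to those with a known protein sequence. Scores were averaged over arrays of the same protein sequence at different concentrations or buffers, and over linkers, and negative values can be taken as non-binding.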
# [2] = biological target: Gal(b1-3)[Fuc(a1-4)]GlcNAc(b1-2)Man(a1-3)[Gal(b1-3)[Fuc(a1-4)]GlcNAc(b1-2)Man(a1-6)]Man(b1-4)GlcNAc(b1-4)GlcNAc
# Summary of the method: as §1
# [3] = biological target: Gal(b1-3)[Fuc(a1-4)]GlcNAc(b1-2)Man(a1-3)[Gal(b1-3)[Fuc(a1-4)]GlcNAc(b1-2)Man(a1-6)]Man(b1-4)GlcNAc(b1-4)[Fuc(a1-6)]GlcNAc
# Summary of the method: as §1
# [4] = biological target: Gal(b1-3)[Fuc(a1-4)]GlcNAc(b1-3)Gal(b1-3)[Fuc(a1-4)]GlcNAc
# Summary of the method: as §1
# [5] = biological target: Gal(b1-3)[Fuc(a1-4)]GlcNAc(b1-3)Gal(b1-4)GlcNAc
# Summary of the method: as §1
# [6] = biological target: Gal(b1-3)[Fuc(a1-4)]GlcNAc(b1-3)Gal(b1-4)[Fuc(a1-3)]GlcNAc
# Summary of the method: as §1
# [7] = biological target: Gal(b1-3)[GlcNAc(b1-6)]GalNAc
# Summary of the method: as §1
# [8] = biological target: Gal(b1-3)[Neu5Ac(a2-6)]GalNAc
# Summary of the method: as §1
# [9] = biological target: Gal(b1-3)[Neu5Ac(a2-6)]GlcNAc(b1-6)Gal(b1-4)Glc
# Summary of the method: as §1
# [10] = biological target: Gal(b1-3)[Neu5Ac(b2-6)]GalNAc
# Summary of the method: as §1
# [11] = biological target: Gal(b1-4)GalNAc(a1-3)[Fuc(a1-2)]Gal(b1-4)GlcNAc
# Summary of the method: as §1
# [12] = biological target: Gal(b1-4)GalNAc(b1-3)[Fuc(a1-2)]Gal(b1-4)GlcNAc
# Summary of the method: as §1
# Gal(b1-4)Glc = biological target: Gal(b1-4)Glc
# Summary of the method: as §1
# Gal(b1-4)Glc6S = biological target: Gal(b1-4)Glc6S
# Summary of the method: as §1
# Gal(b1-4)GlcNAc = biological target: Gal(b1-4)GlcNAc
# Summary of the method: as §1
# [13] = biological target: Gal(b1-4)GlcNAc(a1-6)Gal(b1-4)GlcNAc
# Summary of the method: as §1
# [14] = biological target: Gal(b1-4)GlcNAc(b1-2)Man(a1-3)Man(b1-4)GlcNAc(b1-4)GlcNAc
# Summary of the method: as §1
# [15] = biological target: Gal(b1-4)GlcNAc(b1-2)Man(a1-3)[Gal(b1-4)GlcNAc(b1-2)Man(a1-6)]Man(b1-4)GlcNAc(b1-4)GlcNAc
# Summary of the method: as §1
# [16] = biological target: Gal(b1-4)GlcNAc(b1-2)Man(a1-3)[Gal(b1-4)GlcNAc(b1-2)Man(a1-6)]Man(b1-4)GlcNAc(b1-4)[Fuc(a1-6)]GlcNAc
# Summary of the method: as §1
# [17] = biological target: Gal(b1-4)GlcNAc(b1-2)Man(a1-3)[GlcNAc(b1-2)Man(a1-6)]Man(b1-4)GlcNAc(b1-4)GlcNAc
# Summary of the method: as §1
# [18] = biological target: Gal(b1-4)GlcNAc(b1-2)Man(a1-3)[Man(a1-6)]Man(b1-4)GlcNAc(b1-4)GlcNAc
# Summary of the method: as §1
# [19] = biological target: Gal(b1-4)GlcNAc(b1-2)Man(a1-6)Man(b1-4)GlcNAc(b1-4)GlcNAc
# Summary of the method: as §1
# [20] = biological target: Gal(b1-4)GlcNAc(b1-2)Man(a1-6)[GlcNAc(b1-2)Man(a1-3)]Man(b1-4)GlcNAc(b1-4)GlcNAc
# Summary of the method: as §1
# [21] = biological target: Gal(b1-4)GlcNAc(b1-2)Man(a1-6)[Man(a1-3)]Man(b1-4)GlcNAc(b1-4)GlcNAc
# Summary of the method: as §1
# [22] = biological target: Gal(b1-4)GlcNAc(b1-2)[Gal(b1-4)GlcNAc(b1-4)]Man(a1-3)[Gal(b1-4)GlcNAc(b1-2)Man(a1-6)]Man(b1-4)GlcNAc(b1-4)GlcNAc
# Summary of the method: as §1
# [23] = biological target: Gal(b1-4)GlcNAc(b1-2)[Gal(b1-4)GlcNAc(b1-4)]Man(a1-3)[Gal(b1-4)GlcNAc(b1-2)[Gal(b1-4)GlcNAc(b1-6)]Man(a1-6)]Man(b1-4)GlcNAc(b1-4)GlcNAc
# Summary of the method: as §1
# [24] = biological target: Gal(b1-4)GlcNAc(b1-3)Gal(b1-3)GlcNAc
# Summary of the method: as §1
# [25] = biological target: Gal(b1-4)GlcNAc(b1-3)Gal(b1-4)Glc
# Summary of the method: as §1
# [26] = biological target: Gal(b1-4)GlcNAc(b1-3)Gal(b1-4)GlcNAc
# Summary of the method: as §1
# [27] = biological target: Gal(b1-4)GlcNAc(b1-3)Gal(b1-4)GlcNAc(b1-3)Gal(b1-4)GlcNAc
# Summary of the method: as §1
# [28] = biological target: Gal(b1-4)GlcNAc(b1-3)Gal(b1-4)[Fuc(a1-3)]GlcNAc(b1-3)Gal(b1-4)[Fuc(a1-3)]GlcNAc
# Summary of the method: as §1
# [29] = biological target: Gal(b1-4)GlcNAc(b1-3)GalNAc
# Summary of the method: as §1
# [30] = biological target: Gal(b1-4)GlcNAc(b1-3)[Gal(b1-4)GlcNAc(b1-6)]Gal(b1-4)GlcNAc
# Summary of the method: as §1
# [31] = biological target: Gal(b1-4)GlcNAc(b1-3)[Gal(b1-4)GlcNAc(b1-6)]GalNAc
# Summary of the method: as §1
# [32] = biological target: Gal(b1-4)GlcNAc(b1-3)[GlcNAc(b1-6)]Gal(b1-4)GlcNAc
# Summary of the method: as §1
# [33] = biological target: Gal(b1-4)GlcNAc(b1-6)Gal(b1-4)GlcNAc
# Summary of the method: as §1
# [34] = biological target: Gal(b1-4)GlcNAc(b1-6)GalNAc
# Summary of the method: as §1
# [35] = biological target: Gal(b1-4)GlcNAc(b1-6)[Gal(b1-3)]GalNAc
# Summary of the method: as §1
# Gal3S(b1-3)GalNAc = biological target: Gal3S(b1-3)GalNAc
# Summary of the method: as §1
# Gal3S(b1-3)GlcNAc = biological target: Gal3S(b1-3)GlcNAc
# Summary of the method: as §1
# [36] = biological target: Gal3S(b1-3)[Fuc(a1-4)]GlcNAc
# Summary of the method: as §1
# Gal3S(b1-4)Glc = biological target: Gal3S(b1-4)Glc
# Summary of the method: as §1
# Gal3S(b1-4)Glc6S = biological target: Gal3S(b1-4)Glc6S
# Summary of the method: as §1
# Gal3S(b1-4)GlcNAc = biological target: Gal3S(b1-4)GlcNAc
# Summary of the method: as §1
# Gal3S(b1-4)GlcNAc6S = biological target: Gal3S(b1-4)GlcNAc6S
# Summary of the method: as §1
binder,measurement,setting,value
B1,glycan array binding signal (z-score),[1],-0.535
same,glycan array binding signal (z-score),[2],0.233
same,glycan array binding signal (z-score),[3],-0.488
same,glycan array binding signal (z-score),[4],0.465
same,glycan array binding signal (z-score),[5],-0.133
same,glycan array binding signal (z-score),[6],-0.428
same,glycan array binding signal (z-score),[7],-0.491
same,glycan array binding signal (z-score),[8],-0.374
same,glycan array binding signal (z-score),[9],-0.424
same,glycan array binding signal (z-score),[10],-0.195
same,glycan array binding signal (z-score),[11],0.189
same,glycan array binding signal (z-score),[12],-0.182
same,glycan array binding signal (z-score),Gal(b1-4)Glc,0.389
same,glycan array binding signal (z-score),Gal(b1-4)Glc6S,0.594
same,glycan array binding signal (z-score),Gal(b1-4)GlcNAc,-0.453
same,glycan array binding signal (z-score),[13],-0.704
same,glycan array binding signal (z-score),[14],-0.288
same,glycan array binding signal (z-score),[15],-0.245
same,glycan array binding signal (z-score),[16],0.609
same,glycan array binding signal (z-score),[17],-0.42
same,glycan array binding signal (z-score),[18],-0.152
same,glycan array binding signal (z-score),[19],-0.53
same,glycan array binding signal (z-score),[20],-0.175
same,glycan array binding signal (z-score),[21],-0.519
same,glycan array binding signal (z-score),[22],-0.448
same,glycan array binding signal (z-score),[23],-0.537
same,glycan array binding signal (z-score),[24],-0.335
same,glycan array binding signal (z-score),[25],-0.032
same,glycan array binding signal (z-score),[26],-0.234
same,glycan array binding signal (z-score),[27],-0.634
same,glycan array binding signal (z-score),[28],0.048
same,glycan array binding signal (z-score),[29],-0.647
same,glycan array binding signal (z-score),[30],-0.413
same,glycan array binding signal (z-score),[31],-0.584
same,glycan array binding signal (z-score),[32],-0.305
same,glycan array binding signal (z-score),[33],-0.535
same,glycan array binding signal (z-score),[34],-0.378
same,glycan array binding signal (z-score),[35],-0.478
same,glycan array binding signal (z-score),Gal3S(b1-3)GalNAc,-0.167
same,glycan array binding signal (z-score),Gal3S(b1-3)GlcNAc,-0.174
same,glycan array binding signal (z-score),[36],-0.536
same,glycan array binding signal (z-score),Gal3S(b1-4)Glc,0.533
same,glycan array binding signal (z-score),Gal3S(b1-4)Glc6S,3.5
same,glycan array binding signal (z-score),Gal3S(b1-4)GlcNAc,0.032
same,glycan array binding signal (z-score),Gal3S(b1-4)GlcNAc6S,3.57
